According to article PMC4336329 (PLoS ONE, 2015):
Screen size: about 310,000 compounds; about 2,200 (0.71%) showed an effect of 50% or more. The effect is printed as a negative number. Some of the results follow.

biological target: human ether-à-go-go-related gene (hERG) potassium channel (human, UniProt Q12809); assay: primary screen, population patch clamp on CHO cells stably expressing hERG
Sequence (Q12809 whole entry, looked up): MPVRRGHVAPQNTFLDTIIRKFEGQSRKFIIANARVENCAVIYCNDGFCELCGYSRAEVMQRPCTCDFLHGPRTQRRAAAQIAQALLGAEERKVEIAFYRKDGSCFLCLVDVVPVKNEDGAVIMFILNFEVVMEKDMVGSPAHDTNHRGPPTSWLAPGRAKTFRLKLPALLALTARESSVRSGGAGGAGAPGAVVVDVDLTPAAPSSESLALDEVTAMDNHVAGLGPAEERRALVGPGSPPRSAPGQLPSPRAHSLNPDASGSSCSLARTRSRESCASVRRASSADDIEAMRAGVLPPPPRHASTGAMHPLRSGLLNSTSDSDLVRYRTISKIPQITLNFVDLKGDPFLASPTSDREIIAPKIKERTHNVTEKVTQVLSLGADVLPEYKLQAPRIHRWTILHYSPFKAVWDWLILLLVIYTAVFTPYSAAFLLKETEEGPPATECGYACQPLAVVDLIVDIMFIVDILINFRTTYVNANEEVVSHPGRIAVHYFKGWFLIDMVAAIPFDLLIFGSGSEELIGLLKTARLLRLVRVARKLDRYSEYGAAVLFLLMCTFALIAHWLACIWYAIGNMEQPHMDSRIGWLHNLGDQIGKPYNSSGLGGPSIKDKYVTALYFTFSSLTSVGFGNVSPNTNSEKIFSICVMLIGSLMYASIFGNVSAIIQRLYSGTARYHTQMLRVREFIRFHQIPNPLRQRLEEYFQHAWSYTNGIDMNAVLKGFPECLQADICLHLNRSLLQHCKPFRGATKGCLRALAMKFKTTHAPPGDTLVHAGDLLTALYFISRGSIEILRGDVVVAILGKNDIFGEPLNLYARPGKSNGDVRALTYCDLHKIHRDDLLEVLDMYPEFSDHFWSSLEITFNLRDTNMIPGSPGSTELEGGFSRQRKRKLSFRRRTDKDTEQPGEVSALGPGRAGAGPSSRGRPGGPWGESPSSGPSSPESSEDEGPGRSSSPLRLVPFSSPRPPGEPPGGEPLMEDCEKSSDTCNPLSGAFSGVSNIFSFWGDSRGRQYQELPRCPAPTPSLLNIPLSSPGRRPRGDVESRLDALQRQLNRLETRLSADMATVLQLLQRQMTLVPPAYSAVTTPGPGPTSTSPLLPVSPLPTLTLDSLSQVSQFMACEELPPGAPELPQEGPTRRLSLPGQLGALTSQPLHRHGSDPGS

SMILES | hERG current change (%, negative = inhibition) at 1uM [%]
COc1cc(/C=N/Nc2snc(SC)c2C#N)cc(OC)c1OC | 9.86
COc1ccc(NC(=O)CN2CCN(CC(=O)Nc3ccc(OC)c(OC)c3)CC2)cc1 | -66.1
O=C(c1ccc(C#CC2(O)CCCCC2)cc1)N1CCOCC1 | 12.6
CCCC(C)c1nnc(NC(=O)CCS(=O)(=O)Cc2ccccc2)s1 (centres unmarked) | 5.62
CCOC(=O)Cc1csc(NC(=O)c2cc(OC)cc(OC)c2)n1 | 5.15
CCOc1ccc(S(=O)(=O)NCc2cccnc2)cc1NC(=O)c1ccccc1F | 12.7
CN(C)S(=O)(=O)c1ccc(C(=O)OCC(=O)Nc2sc3c(c2C#N)CCCCC3)cc1 | 10.6
COc1ccc(OC)c(Cc2nnc(CCC(=O)N3CCC(N4CCCCC4)CC3)o2)c1 | 8.67
NC(=O)c1cc(C(=O)c2ccc(Cl)cc2Cl)c[nH]1 | 14.3
CNc1cc([N+](=O)[O-])ccc1N/C=C/C(=O)c1cccs1 | 7.39
O=C(Nc1nnc(CSCc2ccccc2F)s1)c1cccc([N+](=O)[O-])c1 | 9.52
O=C(NC(=S)Nc1ccc(N2CCCC2)cc1)c1ccccc1[N+](=O)[O-] | 3.53
CC(C)c1nnc(NC(=O)CN(C)S(=O)(=O)c2ccc3c(c2)OCCO3)s1 | 13.5
O=C1CC(c2ccsc2)c2cc3c(cc2N1)OCCO3 (centres unmarked) | 4.2
Cn1c(=O)c([N+](=O)[O-])c(-n2ccnc2)c2ccccc21 | -2.1
c1ccc(CCN(Cc2ccccc2)Cc2nc(C3CC3)no2)cc1 | 1.72
COc1ccc(CN(C)CCc2ccccn2)c(OC)c1OC.O=C(O)C(=O)O | -15.2
COC(=O)c1cnn(-c2ccccc2)c1-n1cccc1C=O | 8.55
CCOc1ccc(CC(=O)N2CCC3(CC2)NCCc2[nH]cnc23)cc1 | 17.2

SMILES | hERG current change (%, negative = inhibition) at 1uM [%]
CCCC[C@H](CC(=O)c1ccccc1)[C@@H](OC(C)=O)C(=O)Oc1c(C(C)C)cccc1C(C)C | 2.89
COC(=O)CCC(=O)OC1(C)C(=O)C2=CN(Cc3ccc(OC)cc3)C(c3ccc(OC)cc3)=CC2=C(Br)C1=O (centres unmarked) | -0.172
Oc1ccccc1Oc1c(F)c(F)nc(N2CCCC2)c1F | 5.33
O=C(CCc1ccccc1)NNc1ccc(F)cc1 | 15.1
COc1ccc(CCNC(=O)c2oc3ccc(S(=O)(=O)N4CCOCC4)cc3c2C)cc1OC | 5.88
COc1cc(C2N(c3ccccc3)CCN2c2ccccc2)cc(OC)c1OC | 16.7
N#Cc1c2n(cnc1=O)CCCCC2 | 16.9
COc1ccc(NC(=O)CCC(=O)OCC(=O)c2ccc(Oc3ccc([N+](=O)[O-])cc3)cc2)cc1 | 13.7
CC(C)Sc1nnc([C@H](C)NC(=O)OC(C)(C)C)o1 | -6.28
CCOC(=O)C1CCN(C(=O)CNC(=O)c2nn(-c3ccc(OC)c(Cl)c3)c(=O)c3ccccc23)CC1 | -4.01
O=C(Nc1cc(F)ccc1F)C1CCN(S(=O)(=O)c2cccc3nonc23)CC1 | 12.6
COC(=O)/C=C/c1oc2ccccc2c1C | 7.18
Clc1ccc(SCc2cn3cccnc3n2)cc1 | -3.32
CC(=O)Nc1nonc1NC(=O)CSC1=NCCS1 | 14.7
COC(=O)c1nc2nc(C)cc(=O)n2[nH]1 | 18.9
COc1ccc(CC(=O)NCCc2cnc[nH]2)cc1 | 14.1
COC(=O)COc1ccc(C(C2C(=O)CC(C)(C)CC2=O)C2C(=O)CC(C)(C)CC2=O)cc1 | 10.9
Cc1c(C#N)c2ccccc2n1CC(=O)NCC1CCCO1 (centres unmarked) | 14.8
Br.COc1ccc(-c2cn3c(n2)CCC3)cc1 | 3.61

SMILES | hERG current change (%, negative = inhibition) at 1uM [%]
O=C(NCC(=O)N1CCN(c2ccccc2O)CC1)c1cccs1 | 9.72
CSc1nnc2c(n1)OC(c1ccccn1)N(C(C)=O)c1ccccc1-2 (centres unmarked) | 12.6
Cc1cccc(N2CCN(C(=O)c3ccc(NC(=O)C4CCCO4)cc3)CC2C)c1 (centres unmarked) | 11.1
COc1ccc([N+](=O)[O-])cc1NS(=O)(=O)c1ccc(C)cc1 | 3.48
Cc1ccc(C)c(N2CCN(S(=O)(=O)c3ccc4[nH]c(=O)c(=O)[nH]c4c3)CC2)c1 | 8.34
Cc1ccc(OCC(=O)O)c(-n2nc3ccccc3n2)c1 | 10.3
Nc1nonc1OCCCCOc1nonc1N | 11.7
Cc1ccc(S(=O)(=O)CC(=O)N(CCCN(C)C)c2nc3ccc(C)cc3s2)cc1.Cl | 7.03
O=C(CN(C(=O)C1CSC(=O)C1)c1ccc(F)cc1)NCc1ccc2c(c1)OCO2 (centres unmarked) | 16.9
Nc1nnc(SCC(=O)OCC(=O)c2ccccc2Br)s1 | 2.47
CN1N=C(C(=O)NC2CCCc3c2cnn3-c2ccc(F)cc2F)CCC1=O (centres unmarked) | 6.91
Cc1ccc(CNC(=O)Cn2c([N+](=O)[O-])cnc2C)cc1 | 8.72
CCOc1ccccc1NC(=O)Cn1ncc2ccc([N+](=O)[O-])cc21 | 0.811
CCc1ccc(-c2cc(C)no2)cc1S(=O)(=O)N1CCN(c2cccc(C)c2C)CC1 | 11.8
Cc1ccc(C)c(N2CCN(CC3CC=CCC3)CC2)c1 (centres unmarked) | 12.5
COc1ccccc1CN1C[C@@H]2C[C@@H](c3ccccc3C)N3CCC[C@@]23C1=O | 16.2
O=C(CN1C(=O)NC2(CCCCCC2)C1=O)NC1CCCCCCC1 | 14.5
CC[C@H](C)Cc1cn([C@@H](CCCCNC(=O)OC(C)(C)C)C(=O)NCCCCCCCCCCC(=O)N2CCN(C(=O)OC(C)(C)C)CC2)nn1 | -3.45
